From PubChem BioAssay AID1508624 (National Center for Advancing Translational Sciences (NCATS), 2021) come the findings set out here.

Structures are written as SMILES. The whole screen tested about 48,000 compounds, of which about 120 (0.25%) were called active. Another 4% or so got no clear call; they are omitted. The call rests on the fitted dose curve; in most records, active means well fitted activation curve with a large enough effect; inconclusive means small, poorly fitted or top-dose-only effect, or another doubt; inactive means no such curve, though single readings can be large or run the other way. The list shows a part of the results.

A short description of the test: Primary qHTS for Identification of Small Molecule Activators of Huntingtin-Antisense Promoter Activity. Further: nearly all actives have a fitted effect of over 55% in size. The settings on record: HEK293 HTT-AS promoter firefly luciferase reporter (activity 0% = vehicle and -100% = no light), 24 h; series mostly up to 57.5 µM; activity change, positive = activation: at the top concentration. An outline of the steps: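 HEK293 luciferase promoter-reporter cells (2,500/well) plated 24 h, then compounds added at up to 57.5 uM final for 24 h at 37 °C. Firefly luminescence by Dual-Glo, normalized to vehicle (0%) and zero RLU (-100%).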
In general terms: Quantitative high-throughput screening tests each substance at several concentrations.
Regarding `Cc1cccc(NC(=O)C2CCN(c3cnccn3)CC2)c1`, the “activity change, positive = activation” value is inactive: -17%.

With `CC1CCN(S(=O)(=O)c2ccc3c(c2)oc(=O)n3CC(=O)O)CC1`, the “activity change, positive = activation” value is inactive: -0.0649%.

As for `COc1ccc(CC(=O)Nc2ccc3nc(N4CCCCC4)cc(C)c3c2)cc1`, the “activity change, positive = activation” value is inactive: -5.31%.

With `CCOC(=O)c1c(NC(C)=O)c2c3c(sc2n1Cc1nc(-c2ccccc2Cl)oc1C)CCCC3`, the “activity change, positive = activation” value was inactive: -32.5%.

Take `Cc1ccc(CNC(=O)c2cc3c(s2)-c2c(C)cccc2OC3)cc1`: the “activity change, positive = activation” value is inactive: -8.73%.

With `Cc1ncc([N+](=O)[O-])n1C`, the “activity change, positive = activation” value was inactive: -0.342%.

With `CC(C)OC(=O)C(C(=O)OC(C)C)=C1SC=CS1`, the activity change, positive = activation result was “inactive”.

As for `Cc1cc(C)cc(NC(=O)N2CCN(c3cc(-c4noc(C)n4)ccc3C)CC2)c1`, the “activity change, positive = activation” value is inactive: -45.5%.

On to `COc1ccc2c(c1)c1c(c(=O)n(Cc3ccccc3)c(=O)n1CC(=O)NCc1ccccc1)n2C`, for which the “activity change, positive = activation” value was inactive: -22.5%.

Consider `CCOc1ncc(F)c(=O)[nH]1`, for which the “activity change, positive = activation” value is inactive: -1.74%.

`COc1ccc(CNCc2c(C(=O)O)n(Cc3ccc(F)cc3)c3cc(C)ccc23)cc1OC`: the “activity change, positive = activation” value is inactive: -29.5%.

Turning to `CN(C)CCN(Cc1ccco1)C(=O)c1oc2ccccc2c1NC(=O)c1cccc(F)c1`, the “activity change, positive = activation” value is inactive: 0%.

Take `CCOCCCNC(=O)c1ccc(-n2c(-c3ccccc3)cc3c2CCCCC3)cc1`: the “activity change, positive = activation” value was inactive: -0.808%.

For the compound `CCC(=O)N1CCc2cc(Br)cc(S(=O)(=O)CCC(=O)Nc3cccc(C)c3C)c21`, the “activity change, positive = activation” value was inactive: 4.94%.

Turning to `CCCn1cnc2cc(NCc3ccc(OC)cc3OC)ccc21`, the “activity change, positive = activation” value is inactive: 5.95%.

Turning to `Cc1cc(=O)oc2cc(OCC(=O)Nc3ccc(O)c(C(=O)O)c3)ccc12`, the “activity change, positive = activation” value was inactive: -5.87%.

Consider `Oc1ccc(NCc2ccc(OCc3ccccc3)cc2)cc1`, for which the “activity change, positive = activation” value is inactive: 13.7%.

On to `CCOc1ccc(CC(=O)N2CCc3cc(OC)c(OC)cc3C2COc2ccc3c(C)cc(=O)oc3c2)cc1` (centres undefined), for which the “activity change, positive = activation” value is inactive: 0%.

Take `CCOc1ccc(NC(=O)CCc2c(C)nc3cc(-c4ccc(Cl)cc4)nn3c2C)cc1`: the “activity change, positive = activation” value was inactive: -79.8%.

Consider `CC(C)CNS(=O)(=O)c1ccc(N2CCCCS2(=O)=O)cc1`, for which the “activity change, positive = activation” value is inactive: -4.79%.

In the case of `CCCCCn1c(=O)[nH]c2cc(C(=O)NCc3ccccc3)ccc2c1=O`, the “activity change, positive = activation” value is inactive: -17.2%.

For the compound `Cc1ccc(CNC(=O)CS(=O)(=O)Cc2nc(-c3ccccc3C)oc2C)cc1`, the “activity change, positive = activation” value was inactive: -13.5%.

In the case of `CCCOc1ccc(NC(=O)C(=O)NCCCN2CCOCC2)cc1`, the “activity change, positive = activation” value was inactive: -57.7%.

Consider `COc1ccc(CNC(=O)Cc2c(C)c3c(cc(C)c4c(C)c(C)oc43)oc2=O)cc1OC`, for which the “activity change, positive = activation” value was inactive: -8.3%.

Turning to `Cc1cccc(Cn2c(SCc3ccc(C(=O)NC4CCCC4)cc3)nc3ccncc32)c1`, the “activity change, positive = activation” value is inactive: -20.2%.

As to `CCN(CC)S(=O)(=O)c1ccc2c(c1)N(CC(=O)NCCCN1CCN(c3cc(Cl)ccc3C)CC1)C(=O)CO2`, the “activity change, positive = activation” value is inactive: -34.4%.

Regarding `Cc1cccc(-c2noc(CNC(=O)c3ccccc3Br)n2)c1`, the “activity change, positive = activation” value was inactive: -6.31%.

Take `Cc1ccc(NC(=O)c2sc(-n3nc(C)c(Cc4ccc5c(c4)OCO5)c3C)nc2C)cc1Cl`: the “activity change, positive = activation” value was inactive: -8.88%.

For the compound `CCOC(=O)C1CCC(CN(Cc2ccc(OC)cc2)S(=O)(=O)c2ccc(F)c(C(=O)Nc3c(C)cccc3C)c2)CC1` (centres undefined), the “activity change, positive = activation” value is inactive: -10.6%.

Turning to `CS(=O)(=O)Nc1ccccc1C(=O)OCc1cc(=O)n2nc(C3CCCCC3)sc2n1`, the “activity change, positive = activation” value was inactive: -5.16%.

Take `Cc1ccccc1Nc1c(-c2ccccc2)nc2cccc(C)n12`: the “activity change, positive = activation” value was inactive: 2.7%.

In the case of `Cc1cc(F)ccc1NC(=O)CS(=O)(=O)c1cccc2nsnc12`, the “activity change, positive = activation” value is inactive: -5.2%.

Take `O=C(Cn1cnc2c(nc3n2CCCCC3)c1=O)Nc1ccc(F)c(Cl)c1`: the “activity change, positive = activation” value is inactive: -18.5%.

`COc1ccc(CNc2nc(SCc3ccccc3Cl)nc3ccccc23)cc1`: the “activity change, positive = activation” value is inactive: -26.7%.

With `CSc1ccc(CCNC(=O)c2cc3cc(S(=O)(=O)N4CCCCC4)ccc3n2C)cc1`, the “activity change, positive = activation” value is inactive: -37%.

Regarding `CCOC(=O)C(C#N)=C(c1ccccc1)c1ccccc1`, the “activity change, positive = activation” value was inactive: -11.2%.

In the case of `COc1ccc(N2CC(NC(=O)C3CCCC3)CC2=O)cc1OC` (centres undefined), the “activity change, positive = activation” value was inactive: -7.41%.

As for `CC1CCCN(S(=O)(=O)c2cc3c4c(c2)CC(=O)N4CCC3)C1` (centres undefined), the “activity change, positive = activation” value was inactive: -17.3%.

On to `Cn1nc(C(=O)N2CCN(c3ccc(F)cc3)CC2)c2c1-c1ccccc1SC2`, for which the “activity change, positive = activation” value was inactive: -13.4%.

Regarding `COc1ccc(CCNC(=O)c2cn(C)c3ccc(S(=O)(=O)N(C)C)cc3c2=O)cc1OC`, the “activity change, positive = activation” value was inactive: -6.66%.

As to `CC(C)c1ccc(NC(=O)Cn2nnc(C(=O)NCc3ccc(Cl)cc3)c2N)cc1`, the “activity change, positive = activation” value is inactive: -3.4%.

As for `CCN(C(=O)c1cn(CC(C)C)c(=O)c2cc(OC)c(OC)cc12)c1cc(OC)ccc1OC`, the “activity change, positive = activation” value is inactive: -13%.

On to `COc1ccc2c(c1)sc1ncc(C(=O)NCc3cccc(C)c3)c(=O)n12`, for which the “activity change, positive = activation” value is inactive: -12.7%.

As for `CCc1ccc(C(=O)c2cn(CC(=O)Nc3cc(F)ccc3F)c3nc(C)ccc3c2=O)cc1`, the “activity change, positive = activation” value was inactive: -7.09%.

Regarding `COc1ccccc1NC(=O)c1sc2nc3c(cc2c1N)CN(Cc1ccccc1)CC3`, the “activity change, positive = activation” value is inactive: -22.1%.

Turning to `CCNC(=O)c1c(NC(=O)c2nc(S(=O)(=O)CC)ncc2Cl)sc2c1CCCC2`, the “activity change, positive = activation” value is inactive: -17.7%.

Regarding `CCOC(=O)c1c(C)c(-c2ccccc2)n(CC(=O)NCCc2cccc(C)c2)c1C`, the “activity change, positive = activation” value was inactive: -11.8%.

On to `COCCn1c(C)cc(O)c(C(c2ccc(F)cc2)N2CCN(c3ccccc3)CC2)c1=O` (centres undefined), for which the “activity change, positive = activation” value is inactive: 8.3%.

`COc1ccc(CC(=O)NCCS(=O)(=O)N2CCN(c3ccc(F)cc3)CC2)cc1OC`: the “activity change, positive = activation” value is inactive: -15.8%.
